# Assay results taken from the RNAGym collection of RNA variant scans (doi:10.7554/elife.90254).
# The source gives no read counts; variants with many changes may rest on few reads.
# B1: LINE1-mini (parent)
# chain: GGCAGAGCUCAACACAGCGUGGCAAAGUGGCUGUGGCUAGACUGCC
# Variants of: B1
# Test: self-cleavage, relative activity (ratio to wild type); higher = more cleavage; in vitro, sequencing; the parent is a self-cleaving ribozyme
row,Variant,self-cleavage
1,GGCAUAGGUCAACAUAGCGUGGCAAAGUGGCUGUGGCUAGACUGCC [G5U C8G C15U],0.02
2,AGCAGAGCUCAACACAGCGAGGCAAAGUGGCUGUGGCCAGACUGCC [G1A U20A U38C],0.28
3,GGUAGAGCUCAACACAGCGUGCCAAAGUGGCUGUGGAUAGACUGCG [C3U G22C C37A C46G],0.03
4,GGCAGAGCUCAACACUGCGUGGCAAAGUGGCUGUGGCUAGACUAAC [A16U G44A C45A],0.01
5,GCCAGAGCUCAACACAGCGUGGCAAAUUGGCUGUGGCUAUACUGCC [G2C G27U G40U],0.11
6,GGCGGAGCUGAGCACAGCGUGGCAAAGUGGCUGUGGCUAGACUGCC [A4G C10G A12G],0.05
7,GGCAGUGCUCAACAACGCGUGGCAAAUUGGCUGUGGCUAGACUGCC [A6U C15A A16C G27U],0.09
8,GGCAGAGGUCAACACAGCGUGGCAAUGUGGCUGGGGCUAGACUGCC [C8G A26U U34G],0.02
9,GGCACAGCUCAACGCAGCCUGGCAAAGUGGCUGUGGCUAGACAGCC [G5C A14G G19C U43A],0.02
10,ACCAGACUUCAAAACAACGGGGCAAAGUCGCUGUGGCUAGACUGCC [G1A G2C G7C C8U C13A G17A U20G G29C],0.01
11,GGCAGAGCUGAACACAGCGUGGCAAAGUGACUGUGGCUAGACAGGC [C10G G30A U43A C45G],0.02
12,GGCAGACCUCAACACAUCGUGGCAAAGUGUCUGUGGCUAGACUGCC [G7C G17U G30U],0.12
13,GGCAGAGCUCAACACAGCGUUGUAAAGUGGCUGUGGCUAAACUGCC [G21U C23U G40A],0.5
14,GGCAGAGCUCAGCACAGCGUGGCAAAGUGGCUGUGGGUUGACUGCC [A12G C37G A39U],0.14
15,GGCACAGCUCAACACAGCGUAUCAAAGUGGCUGUGGCUAGACUGCC [G5C G21A G22U],0.02
16,GGCAGAGCUCAACACAGCGUGACCAAGUGGCGGUGGCUAAUCUGCC [G22A A24C U32G G40A A41U],0.12
17,AGCAGAGCUCAAUACAGCGUGGCAAAGUGGCUGUUGCUAGACUGGC [G1A C13U G35U C45G],0.03
18,GGCUGCGCUAAACAGAGCGUUGCAAAGUGGCUGUGGCUAGACUGCC [A4U A6C C10A C15G G21U],0.02
19,GGCAGAGCUCAAAACAGCGUGGCAACGUCGCUGUGGCUAGACUGCC [C13A A26C G29C],0.07

row,Variant,self-cleavage
1,GGCUGAGCUCAACGUAGCGUGGCAAAGUGGCUGUGGCUAGACUGCC [A4U A14G C15U],0.4
2,GGGAGAGCUCAACACAGCGUGGCAAAGAGGCUGGGGCUAGACUGCC [C3G U28A U34G],0.04
3,GGCAGAGAUAAACAGAGCGUGGCAAAGUGGCUGGGGCUCGACUGGC [C8A C10A C15G U34G A39C C45G],0.01
4,GGCAGAGCUUAACACUGCGUGGAAAAGUGGCUGUGGCUAGCCAGCC [C10U A16U C23A A41C U43A],0.03
5,GGCAAAGCUCAACACAGUGUGGCAAAGUAGCUGCGGCUAGACUGAC [G5A C18U G29A U34C C45A],0.04
6,ACCAGAGCUCAACACCGCGUGACAAAGUUGCUGUGGCUAGUCUGCC [G1A G2C A16C G22A G29U A41U],0.06
7,GGCCGAGCUCAACACAGCGAGGCAAGGUGGCUGUGGCUAGACUGCU [A4C U20A A26G C46U],0.12
8,GGCAGAGCUCCACACAGCGUGGCAAAGUGGCUGUGGAUAUAGUGCC [A11C C37A G40U C42G],0
9,GGCAGAGCUCAACACAGGGUGGCAAAGUGGCUGAGGCUAGUCUGCC [C18G U34A A41U],0.01
10,GGCAGAGCUCAACACAGAGCGGCAAAGUGGCUGUCGCUAGACGGCC [C18A U20C G35C U43G],0.01
11,GGCAGAGCUCAACACAGUGUGGCAAAGUGCCUGUGGCUAGACUGAU [C18U G30C C45A C46U],0.01
12,GUCAGAGCUCAACAGAGCGUGGUAAAGUGGCUGUGGCUAGACUGCC [G2U C15G C23U],0.01
13,GGCAGAGCUUAAGACACCGUGGCAAAGUGGCUGUGGCUAGACUGAC [C10U C13G G17C C45A],0.02
14,GGCAGUGCUCAACACAGCGUGGCAAAGUGGCUUUGGCUAGACUGCA [A6U G33U C46A],0.42
15,GGCAGAGCUCAACACACCGUUGCAAAGUGGCUGUUGCUAGCCUGCC [G17C G21U G35U A41C],0.04
16,UGUCGAGCUCAACACAGCGUGGCAAAGUGGCUGUGGCUAGACUGCC [G1U C3U A4C],0.11
17,GGCAGUCUUCAAAACAGCCUGGCUAAGUGGCGGUAGCUAGACUGCC [A6U G7C C8U C13A G19C A24U U32G G35A],0.14
18,GGCAUAGCUCAACACAGCUUGGCAAAGUGGCUGUGACUAGACUCCC [G5U G19U G36A G44C],0.05
19,GGCAGAGCUCAACACAGCGUCGCCAAGUGGCGGUGGCUAGACAGCC [G21C A24C U32G U43A],0.02

row,Variant,self-cleavage
1,GUCAGAGAUCUACACAGCGUGGCAAAGUGGCUGUGGCUAGACUGCC [G2U C8A A11U],0.03
2,GGCCGACCUCAACACAGCGUGGCAAAGUAGCUGUGGGUAGACUGCC [A4C G7C G29A C37G],0.04
3,GUCAGAGCUCAAUACAGCGUGGCAGACUGGCUGUGGCUAGACUGAC [G2U C13U A25G G27C C45A],0
4,GGCAGAGCUCAACAGAGCGUAGCAAAGAGGCUGUGGCUAGACUGCA [C15G G21A U28A C46A],0.04
5,GGCAGAGUUCAACACAGCGUGGCAUAGUUGCUGUGGCUAGACUGCC [C8U A25U G29U],0.12
6,UGCAGCGCUCAACACAGCGUUGCAAAGUGGCUGUGGCUAGACUGCC [G1U A6C G21U],0.05
7,GGCAGAGCUCAACUCAGCGUGGCAAAGUGGCGGUGGCUGGACUGCC [A14U U32G A39G],0.04
8,GGCAAAGCUCAACACAGCGUUGCAAAGUCGCUUUGGCUAGACUGCC [G5A G21U G29C G33U],0.09
9,GGCAGAGCUCAGCACAGCAUGGCAAAGUGGCUGUGGGUAGACUGCC [A12G G19A C37G],0.03
10,GGCAGCUCUCAACACAGCAUGGCAAAGUGGCUGUGGCGAGACUGCC [A6C G7U G19A U38G],0.03
11,GGCAGAGCUCAACACAGCGCGGCACAGUGGCGCUGGUUAGACUGCC [U20C A25C U32G G33C C37U],0
12,GGCAGAGAUCAACACACCGUGGCAAAGUGGCUUUGGCUAGACUGCC [C8A G17C G33U],0.23
13,GGCAGACCUCAACACAGCGUGACAAAGUGGAGGUGGCUAGACUGCC [G7C G22A C31A U32G],0.04
14,GGCAGAGCACAACACAGCGUGGUAAAGUGGAUGUGGCUAGACUGCC [U9A C23U C31A],0.07
15,GGCAGAGCUCCACACAGCGUGGCAAAGCGGCUGUGGCUAGACUGCA [A11C U28C C46A],0
16,GGCAAAGGUCAAUGCAGCGUGGCAAAGCGGCUGUGCAUAGACUGCC [G5A C8G C13U A14G U28C G36C C37A],0.07
17,GGCAGAGCUCAACACAGCGAGGCAAAGUGGCUGUGGCAAGAGUGCU [U20A U38A C42G C46U],0.02
18,GGCAGAGCUGAACACAGCGUAGAUAAGUGGCUGUGGCUAGACUGCC [C10G G21A C23A A24U],0.03
